Measurements taken from the supplement of paper PMC3334620.
Whole data set: some 33,000 sequences, median “E-score (-0.5 to 0.5)” near -0.04, cut for the highest 2% near 0.36. The list shows a part of the results.

Target: T1, Hmlalpha2 (UniProt P0CY09)
T1 sequence: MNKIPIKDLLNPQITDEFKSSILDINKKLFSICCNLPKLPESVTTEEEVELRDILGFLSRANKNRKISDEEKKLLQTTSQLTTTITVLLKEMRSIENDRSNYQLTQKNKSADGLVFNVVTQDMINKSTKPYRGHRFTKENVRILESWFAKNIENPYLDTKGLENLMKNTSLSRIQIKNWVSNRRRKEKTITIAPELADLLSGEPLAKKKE
Test: PBM E-score (8-mer binding enrichment) (E-score (-0.5 to 0.5)); higher = stronger / more preferred TF binding; most listed sequences are background and not binding sites
Conditions: protein concentration: 200 nM; construct: GST-full length
How it was run: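 Universal all-10-mer Agilent arrays, fresh or stripped once, were converted to double-stranded form by primer extension. GST-tagged yeast transcription factors from PURExpress in vitro transcription/translation, full-length or DNA-binding domain only, were applied at about 100-200 nM and detected with fluorescent anti-GST. After masliner normalisation, the Universal PBM Analysis Suite scored each ungapped eight-base word together with its reverse complement by E-score.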

Sequence | PBM E-score
CATGGGGA | -0.0327
ATTCCAGA | -0.0334
GATGTCAA | 0.194
CGTTTGTA | 0.275
GCCGTTTA | -0.0377
CCTACGGA | -0.288
GAAGTGGC | -0.132
CCGACATC | -0.04
AGGCGCTG | -0.0892
ATGTTCAC | 0.298
CTCTTCAG | -0.265
ACAAGGAC | 0.105
CGTTATTA | 0.222
CTCGTCTC | -0.115
AGACCTCC | -0.232
ACGTACGC | 0.292
GTAAGTTA | 0.213
ATCTGGTA | 0.162
CAAGCATC | -0.173
ATGCATGG | 0.207
TATATATA | 0.361
AGGGAATA | 0.0329
CAGGTGCA | -0.0907
GTGAGCAC | -0.00337
CAACATAA | 0.359

Sequence | PBM E-score
CAAATCGG | -0.208
CACGATCG | 0.137
AATGGGAC | -0.288
CGGGACCC | -0.354
ATTATGAC | 0.107
CTTGAGGA | -0.227
CACGCTCG | 0.0339
CTTTGTTA | 0.324
AGCGCCCC | -0.363
ACCCGTCA | -0.224
AGTGCAAA | 0.178
AAATACAC | 0.431
CAACTGCA | 0.0885
CGATATAG | 0.051
ACGTCACA | 0.143
CAGCTAGG | -0.177
CACGTCTG | 0.084
CGGTGAAC | -0.0685
GGGCGACC | -0.382
GCGGAACA | -0.184
ACATATGA | 0.26
GTCGTCCA | -0.121
CGGACTCC | -0.0792
AGGGTTAG | -0.0069
AAGACCGG | -0.294

Sequence | PBM E-score
CCTCAGGC | -0.32
ACCCTTAC | 0.0252
CGATAAAA | 0.0667
CTTTCAAC | 0.149
AACCTTGC | -0.156
AGGTACGA | -0.162
GATGAATA | 0.185
GAAGCAGA | -0.156
AAACAGCT | -0.0533
GAAGCCAC | -0.114
CACACTTC | 0.143
AGTAGACA | 0.093
CATTGCCG | 0.0323
CCCGTCAA | -0.146
AACCTAAA | 0.174
AGATGATA | 0.127
AGAGTCAG | -0.183
ATTGTGTA | 0.42
AGCAGGAG | -0.0702
GTGTCGAA | 0.229
CCGACTTA | -0.058
AACAAAGG | 0.00375
CCACCACA | 0.0106
CCTTGACA | 0.182
CTTTTTGA | -0.0352

Sequence | PBM E-score
ACATATCT | 0.305
AATGTGTG | 0.0802
CGCTGTTA | 0.12
ACTTAGCC | 0.0449
AACCCTGG | -0.204
AGTGGGTG | -0.0299
GCGTCGAC | 0.0467
CATCCATC | -0.169
GTTCTTGA | 0.101
CCGAGTGC | -0.288
CCCTTACA | 0.205
CATGTTCA | 0.338
AATCCTGA | -0.079
GAGCCCTA | -0.285
ATCGTTCG | -0.0141
ATTAGTAA | 0.206
CGTATACA | 0.377
CACGAATC | 0.179
ATTGGGAA | -0.195
CTATTCCC | -0.203
TGCTTTAA | 0.153
GCGGCCCA | -0.279
GACGTTCA | -0.0369
CTACATTC | 0.0322
GCCCGTCA | -0.298

Sequence | PBM E-score
GGAAAACC | -0.12
CTGGAAAC | 0.0892
GCTACACA | 0.323
AACGACTC | -0.111
CAGCGCGC | -0.142
ACCGGCAG | -0.37
CACTTCTG | -0.181
CATTTTTA | 0.081
GCTACGAC | -0.00978
CACTAATC | -0.0861
AGCTGCTA | -0.0148
AATGAATC | -0.0655
CATGAGTC | 0.175
TAGAGCCA | -0.119
AACGAATC | 0.11
TACATGCA | 0.438
ACTTTGCA | 0.177
ACCGATCA | 0.0428
CCAGCCTA | -0.265
CCGTGTTC | 0.328
TACTCAAA | 0.087
ATTGGTAC | -0.0832
ACCCAACT | -0.136
CAAAAACA | 0.203
AATGCTCG | 0.0169

Sequence | PBM E-score
AACCCCGC | -0.271
CAATAAAC | 0.0358
AATTGTTA | 0.19
CCCTTCCA | -0.225
ACGATATC | 0.0761
GATTGAAC | 0.181
ACATATCC | 0.211
TAGATGCA | -0.0743
GAGCCTCC | -0.163
ACTGTTCC | -0.221
ACGAGAAA | 0.133
AAGTCCCG | -0.154
AAATTGTC | 0.0749
AGCTTTGC | -0.176
AAGTTAAT | 0.187
ACGTTACA | 0.347
AACAGCGG | -0.234
GGTGGAAC | -0.0488
CGGGCTAG | -0.291
TCTCGAAA | -0.0582
AGTCGCGG | -0.266
CACTAGAG | -0.0668
TGCGGAAA | -0.146
ACGGACGT | -0.00462
GATGAGCA | 0.131

Sequence | PBM E-score
CAATTGCA | -0.0992
CACAAAGC | 0.129
AATAGAAA | 0.00298
GTCCGCAC | -0.0582
ATGTGCGC | 0.127
CGGCTTCA | -0.0707
CAGTGGAG | -0.232
CCCGACCA | -0.239
CGCTCGGC | -0.27
AGGCGTAG | -0.168
ACAAGCAG | 0.121
CACTTGCG | -0.0934
CCTCTCAA | -0.144
CAGTGAGG | -0.244
GGTTCGAA | -0.0183
CCACCTTC | -0.199
CCCCGCAA | 0.00265
CGGATTTC | -0.196
CAGGAGTA | -0.0204
AGAGTTTC | -0.0973
GAACCCTA | 0.0243
TCAGGGGA | -0.182
